In all, about 81,000 sequences were measured (“one-hybrid fitness for binding parS DNA”: median about -0.17, highest 2% from about 0.51 on). Some of the results follow.
B1: Caulobacter ParB omega fusion; a variant is named by its letters at X, in order, B8GW30 (parent)
chain: MESVVVGEPGMSEGRRGLGRGLSALLGEVDAAPAQAPGEQLGGSREAPIEILQRNPDQPRRTFREEDLEDLSNSIREKGVLQPILVRPSPDTAGEYQIVAGERAWRAAQRAGLKTVPIMVRELDDLAVLEIGIIENVQRADLNVLEEALSYKVLMEKFERTQENIAQTIGKSXSHVANXMRLLXLPDEVQSYLVSGELTAXHARAIAAAADPVALAKQIIEGGLSVRETEALARKAPNLSAGKSKGGRPPRVKDTDTQALESDLSSVLGLDVSIDHRGSTGTLTITYATLEQLDDLCNRLTRGI

Variants of: B1
Test: one-hybrid fitness for binding parS DNA (scaled: cognate 1, non-cognate 0); higher = stronger binding
Settings: with parS DNA site
Summary of the method: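 Caulobacter ParB libraries with four specificity codons randomised were screened by bacterial one-hybrid selection in the E. coli USO strain, using a HIS3 reporter whose site lies 19 bp from the promoter. Selection ran for 48 hours at 37°C on M9 lacking histidine, with 0.1 mM IPTG and 5 mM 3-AT. Plasmids were Illumina-sequenced before and after selection, three replicate libraries were pooled, and variants with under 10 reads were dropped. Fitness is the log change in each variant's read ratio to wild type, rescaled against the cognate and non-cognate sites.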

Row | Variant | one-hybrid fitness for binding parS DNA
1 | FFSI | ≤ 0.2
2 | VMLN | ≤ 0.2
3 | YSQY | ≤ 0.2
4 | HGAH | ≤ 0.2
5 | SDPY | ≤ 0.2
6 | PLNG | ≤ 0.2
7 | CFTS | ≤ 0.2
8 | VTPD | ≤ 0.2
9 | RFFW | ≤ 0.2
10 | ICTC | ≤ 0.2
11 | GCSF | ≤ 0.2
12 | LLKL | ≤ 0.2
13 | RASA | 0.595
14 | TSKI | ≤ 0.2
15 | TAPD | ≤ 0.2
16 | AVHC | ≤ 0.2
17 | DKGM | ≤ 0.2
18 | YMYP | ≤ 0.2
19 | WMCC | ≤ 0.2
20 | VKPF | ≤ 0.2
21 | WSCI | 0.213
22 | LWST | ≤ 0.2
23 | KSNE | ≤ 0.2
24 | ICTV | ≤ 0.2
25 | WPCG | ≤ 0.2

Row | Variant | one-hybrid fitness for binding parS DNA
26 | QYIK | ≤ 0.2
27 | PDAA | ≤ 0.2
28 | RSIC | 0.718
29 | THLS | ≤ 0.2
30 | WDIR | ≤ 0.2
31 | GWYC | ≤ 0.2
32 | QLCD | ≤ 0.2
33 | DDQF | ≤ 0.2
34 | TRND | ≤ 0.2
35 | EFMA | ≤ 0.2
36 | PRRP | ≤ 0.2
37 | SFST | ≤ 0.2
38 | QTTQ | ≤ 0.2
39 | LLEW | ≤ 0.2
40 | NEHF | ≤ 0.2
41 | FTKT | ≤ 0.2
42 | LNIC | ≤ 0.2
43 | HISG | ≤ 0.2
44 | TGWV | ≤ 0.2
45 | QHLN | ≤ 0.2
46 | ERYY | ≤ 0.2
47 | SVGA | ≤ 0.2
48 | RSGF | 0.274
49 | FQHV | ≤ 0.2
50 | IYLS | ≤ 0.2

Row | Variant | one-hybrid fitness for binding parS DNA
51 | QLSA | ≤ 0.2
52 | MLDG | ≤ 0.2
53 | QQLS | ≤ 0.2
54 | NTCR | ≤ 0.2
55 | LPSI | ≤ 0.2
56 | SVAT | ≤ 0.2
57 | RKIC | 0.811
58 | LLEA | ≤ 0.2
59 | LIDL | ≤ 0.2
60 | DPRI | ≤ 0.2
61 | EFRR | ≤ 0.2
62 | RITC | 0.962
63 | DANR | ≤ 0.2
64 | KIYC | ≤ 0.2
65 | TTYS | ≤ 0.2
66 | LRMT | ≤ 0.2
67 | GSIY | ≤ 0.2
68 | TMLS | ≤ 0.2
69 | GAKH | ≤ 0.2
70 | RDSL | ≤ 0.2
71 | AQCS | ≤ 0.2
72 | ENDY | ≤ 0.2
73 | AHPM | ≤ 0.2
74 | QEKR | ≤ 0.2
75 | LSFG | ≤ 0.2

Row | Variant | one-hybrid fitness for binding parS DNA
76 | ADTE | ≤ 0.2
77 | PPHR | ≤ 0.2
78 | SGQA | ≤ 0.2
79 | SPFC | ≤ 0.2
80 | HMSC | ≤ 0.2
81 | RDHC | ≤ 0.2
82 | RFFT | 0.582
83 | LPSG | ≤ 0.2
84 | LSQL | ≤ 0.2
85 | RLQS | 1
86 | HVHI | ≤ 0.2
87 | TYKQ | ≤ 0.2
88 | WRKN | ≤ 0.2
89 | VSTV | ≤ 0.2
90 | SCVR | ≤ 0.2
91 | VIGT | ≤ 0.2
92 | VKFT | ≤ 0.2
93 | LMKA | ≤ 0.2
94 | GEDS | ≤ 0.2
95 | PCQC | ≤ 0.2
96 | VLSD | ≤ 0.2
97 | RQQA | 0.548
98 | RHTM | 0.224
99 | FTHS | ≤ 0.2
100 | GPRK | ≤ 0.2

Row | Variant | one-hybrid fitness for binding parS DNA
101 | KGRV | ≤ 0.2
102 | GTWC | ≤ 0.2
103 | QWIT | ≤ 0.2
104 | GSLC | ≤ 0.2
105 | WYTT | ≤ 0.2
106 | SMES | ≤ 0.2
107 | TMED | ≤ 0.2
108 | ADNE | ≤ 0.2
109 | EASM | ≤ 0.2
110 | VDAD | ≤ 0.2
111 | SNEY | ≤ 0.2
112 | CVEG | ≤ 0.2
113 | QVFW | ≤ 0.2
114 | CSVR | ≤ 0.2
115 | HVFF | ≤ 0.2
116 | KRHI | ≤ 0.2
117 | NNSR | ≤ 0.2
118 | LTDF | ≤ 0.2
119 | INHN | ≤ 0.2
120 | RCMW | 0.261
121 | RWWG | 0.641
122 | VGHM | ≤ 0.2
123 | LADS | ≤ 0.2
124 | KGIS | ≤ 0.2
125 | SYAI | ≤ 0.2

Row | Variant | one-hybrid fitness for binding parS DNA
126 | AHVY | ≤ 0.2
127 | APVV | ≤ 0.2
128 | RWVL | ≤ 0.2
129 | AHII | ≤ 0.2
130 | RAGM | 0.342
131 | TKKR | ≤ 0.2
132 | RDHS | ≤ 0.2
133 | PKHT | ≤ 0.2
134 | QYNS | ≤ 0.2
135 | GRDT | ≤ 0.2
136 | VCSW | ≤ 0.2
137 | NRSR | ≤ 0.2
138 | VWWR | ≤ 0.2
139 | EQNF | ≤ 0.2
140 | RGYL | ≤ 0.2
141 | RHAR | ≤ 0.2
142 | RIKK | ≤ 0.2
143 | QRHK | ≤ 0.2
144 | QLCT | ≤ 0.2
145 | VDAT | ≤ 0.2
146 | EPTH | ≤ 0.2
147 | VLVC | ≤ 0.2
148 | WAIG | ≤ 0.2
149 | VITF | ≤ 0.2
150 | GQAS | ≤ 0.2

Row | Variant | one-hybrid fitness for binding parS DNA
151 | PDRG | ≤ 0.2
152 | RRIE | ≤ 0.2
153 | YPLV | ≤ 0.2
154 | MQFR | ≤ 0.2
155 | GVMD | ≤ 0.2
156 | MVFN | ≤ 0.2
157 | HRMV | ≤ 0.2
158 | WPEL | ≤ 0.2
159 | TYHQ | ≤ 0.2
160 | LEYG | ≤ 0.2
161 | AIQR | ≤ 0.2
162 | QCCK | ≤ 0.2
163 | PHPN | ≤ 0.2
164 | DGIL | ≤ 0.2
165 | GFTR | ≤ 0.2
166 | RPEN | ≤ 0.2
167 | QAFD | ≤ 0.2
168 | SYDD | ≤ 0.2
169 | TGAA | ≤ 0.2
170 | QNKE | ≤ 0.2
171 | TLAV | ≤ 0.2
172 | DWYT | ≤ 0.2
173 | QMPK | ≤ 0.2
174 | PYYT | ≤ 0.2
175 | LFYC | ≤ 0.2

Row | Variant | one-hybrid fitness for binding parS DNA
176 | RTIM | 0.279
177 | RKFY | 0.363
178 | THCL | ≤ 0.2
179 | RRFQ | ≤ 0.2
180 | HVDN | ≤ 0.2
181 | GDTM | ≤ 0.2
182 | HDGG | ≤ 0.2
183 | EMSP | ≤ 0.2
184 | KNKR | ≤ 0.2
185 | PSQW | ≤ 0.2
186 | KHYS | ≤ 0.2
187 | TDTG | ≤ 0.2
188 | QMAR | ≤ 0.2
189 | YYEK | ≤ 0.2
190 | NGKY | ≤ 0.2
191 | QNIT | ≤ 0.2
192 | SSVC | ≤ 0.2
193 | VRPG | ≤ 0.2
194 | LNFP | ≤ 0.2
195 | QQSP | ≤ 0.2
